In all, about 390,000 compounds went through this assay and about 1,400 (0.36%) were called active. The shares of active, inactive and inconclusive entries below differ from those in the screen. Calls follow the shape of the dose curve; as a rule, active = well fitted inhibition curve with a large enough effect; inconclusive = small, poorly fitted or top-dose-only effect; inactive = no such curve, though single readings can be large or run the other way. Where the call is inconclusive, the potency comes from a doubtful curve fit.
The molecules below were run against Flap endonuclease 1 (Homo sapiens) (UniProt P39748) (assay: qHTS Assay for the Inhibitors of Human Flap endonuclease 1 (FEN1).). Settings: Recombinant FEN1 flap cleavage, fluorescence, 15 min; series mostly up to 114 µM.
Sequence of UniProt P39748 (P39748 whole entry, looked up): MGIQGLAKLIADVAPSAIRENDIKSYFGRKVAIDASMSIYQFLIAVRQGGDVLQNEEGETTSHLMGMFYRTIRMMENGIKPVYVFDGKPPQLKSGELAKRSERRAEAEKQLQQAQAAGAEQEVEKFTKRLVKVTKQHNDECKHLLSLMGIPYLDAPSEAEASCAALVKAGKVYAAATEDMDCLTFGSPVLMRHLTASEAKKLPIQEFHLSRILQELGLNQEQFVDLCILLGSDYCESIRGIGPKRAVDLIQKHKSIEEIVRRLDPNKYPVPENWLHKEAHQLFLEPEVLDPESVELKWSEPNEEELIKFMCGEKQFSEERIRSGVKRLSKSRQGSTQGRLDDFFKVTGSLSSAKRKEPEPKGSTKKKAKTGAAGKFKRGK
Summary of the method: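 In this screen, 50 nM flap DNA substrate was added to 10 nM FEN1 pretreated with compound for 15 min at room temperature; cleavage was followed with reads at 0 and 15 min, and Hill fitting gave concentration–response parameters.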
Also: nearly all actives have a fitted effect of over 65% in size.
Potency is read from the fitted curve at half-maximal effect; tags tell the direction and shape of the fitted curve.

Structure (SMILES)	Potency
N#C/C(=C/c1ccc(N2CCCC2)c([N+](=O)[O-])c1)c1nc2ccccc2[nH]1	inactive
Cc1ccc(C)c(CNC(=O)c2ccc3c(c2)nc2n3CCCCC2)c1	inactive
CN1C(=O)c2cccc3c(N(C)C)ccc(c23)C1=O	inconclusive: 35.5 µM [inhibitor, partial curve, poor fit]
Cc1cc(NC(=O)CCS(=O)(=O)c2cc(Br)cc3c2N(C(=O)C2CC2)CC3)ccc1Br	inconclusive: 89.1 µM [inhibitor, partial curve, poor fit]
COc1ccc(C(=O)/C=C/c2cc(C(=O)O)cc3c2OCOC3)c(O)c1	inactive
Cc1ccc(NC(=O)/C(=C\c2ccco2)NC(=O)c2ccco2)cc1	inactive
CC(=O)Nc1ccc(NC(=O)c2nc(S(=O)(=O)Cc3cccc(C)c3)ncc2Cl)cc1	inactive
CCn1c2ccccc2c2cc(CN3CCN(Cc4ccccc4Cl)CC3)ccc21	inconclusive: 89.1 µM [inhibitor, single point]
Cc1csc(NC(=O)CCc2nc3ccccc3s2)n1	inactive
CCOc1ccc(C(=O)N/N=C/c2ccc(-c3ccc(S(=O)(=O)Nc4ncccn4)cc3)o2)cc1	inconclusive: 79.4 µM [inhibitor, single point]
O=C(O)CP(=O)(O)O	inactive
CCN(C(=O)c1coc(=O)c(Br)c1)c1ccc2c(c1)OCO2	inconclusive: 79.4 µM [inhibitor, partial curve, poor fit]
Cc1cc(-c2ccccc2C(=O)O)on1	inactive
Cc1ccc(-c2nc3c4ccccc4[nH]c(=O)n3n2)cc1	inactive
O=C(NC(=S)N1CCc2ccccc21)c1ccccc1	inactive
CCCCCN=C(N)N/N=C/c1c[nH]c2ccc(OC)cc12	inconclusive: 50.1 µM [inhibitor, partial curve]
CC1=NN(c2ccc(N)cc2)C(=O)C1	inconclusive: 56.2 µM [inhibitor, partial curve, poor fit]
CCOCCOc1cc(NCc2ccccc2)c2ncn(C(C)C)c2c1	inconclusive: 28.2 µM [inhibitor, full curve, poor fit]
COc1ccc(-c2ccc(/C=C3/C(=N)N4C(C)=CSC4=NC3=O)o2)c([N+](=O)[O-])c1	inconclusive: 89.1 µM [inhibitor, partial curve, poor fit]
COc1ccc(NC(=O)Cn2nnc(C(=O)NCc3cccc(OC)c3)c2N)cc1	inconclusive: 89.1 µM [inhibitor, partial curve, poor fit]
COc1ccc2cc3cc(C(=O)NCCN4CCc5ccccc5C4)oc3nc2c1	inconclusive: 44.7 µM [inhibitor, partial curve, poor fit]
COc1cc(NC(=O)c2noc3c2CC(C(C)(C)C)CC3)cc(OC)c1OC (centres undefined)	inactive
COc1ccc(Nc2cc(C)c3cc(NC(=O)COc4cccc(C)c4)ccc3n2)cc1	inactive

Structure (SMILES)	Potency
CCCCCCCCCC(=O)O	inactive
CCc1cc(=O)oc2c(C)c(OCC(=O)Nc3ccc(S(=O)(=O)N(CC)CC)cc3)ccc12	inactive
N#C/C(=C\c1ccc(N2CCOCC2)c([N+](=O)[O-])c1)c1nc2ccccc2[nH]1	inconclusive: 25.1 µM [inhibitor, partial curve, poor fit]
NC(=O)c1c(NC(=O)CSc2nnc(-c3ccco3)n2N)sc2c1CCCC2	inconclusive: 44.7 µM [inhibitor, partial curve]
Cc1nnc(N2C(=O)c3oc4ccccc4c(=O)c3C2c2ccco2)s1 (centres undefined)	inactive
O=C(COC(=O)c1ccc([N+](=O)[O-])s1)Nc1ncc(C(F)(F)F)cc1Cl	inconclusive: 20 µM [inhibitor, partial curve, poor fit]
COc1cccc(OCC(O)CN2CCN(CCN3C(=O)c4cccc5cccc(c45)C3=O)CC2)c1 (centres undefined)	inconclusive: 50.1 µM [inhibitor, partial curve]
O=[N+]([O-])c1c(Nc2cccc(O)c2)cc(Cl)c2nonc12	active: 50.1 µM
Nc1ccccc1SCc1cc([N+](=O)[O-])cc2c1OCOC2	inconclusive: 89.1 µM [inhibitor, partial curve, poor fit]
CCc1c(C2(O)CCCCC2)[nH]c2cc(C(F)(F)F)ccc12	inconclusive: 50.1 µM [inhibitor, partial curve, poor fit]
CCCCC1=CC2=CC(=O)C(C)(OC(=O)C3CCCC3)C(=O)C2=CO1 (centres undefined)	inconclusive: 79.4 µM [inhibitor, partial curve]
C=C(c1nc2ccccc2s1)C1Cc2cccc3c2N(CCC3)C1 (centres undefined)	inconclusive: 56.2 µM [inhibitor, partial curve, poor fit]
COc1ccc(C(=O)C[n+]2cc(Br)cc(Br)c2)cc1	inconclusive: 89.1 µM [inhibitor, partial curve, poor fit]
O=C(NCc1ccncc1)C1CCN(S(=O)(=O)Cc2ccccc2)CC1	inconclusive: 0.158 µM [inhibitor, full curve]
CC(CNC(=O)c1ccc2nc(CCc3ccccc3)oc2c1)c1ccccc1 (centres undefined)	inactive
CCCN1CNc2c(c(=O)[nH]c(=S)n2CCc2ccccc2C)C1	inactive
CCOP(=O)(c1ccccc1)c1nc(-c2ccccc2Cl)oc1N1CCCCC1 (centres undefined)	inconclusive: 56.2 µM [inhibitor, partial curve, poor fit]
O=C(c1cccc(S(=O)(=O)N2CCc3ccccc32)c1)N1CCc2ccccc2C1	inconclusive: 39.8 µM [inhibitor, single point]
COC(=O)c1ccccc1NC(=O)Cn1c(=O)cc(-c2ccccc2)c2c(C)nn(C)c21	inactive
CC(C)(C)NCC(O)COc1cccc2[nH]c(=O)[nH]c12 (centres undefined)	inconclusive: 5.97 µM [inhibitor, partial curve, poor fit]
O=C1c2cccc3cccc(c23)C(=O)N1Cc1cccnc1	inactive
Cc1cccn2c(=O)c3cc(C(=O)NCc4ccccc4)c(=N)n(CCCN4CCOCC4)c3nc12	inconclusive: 89.1 µM [inhibitor, single point]
COc1c(N2CCN(C(=S)NC3CC4CCC3C4)C(C)C2)c(F)cc2c(=O)c(C(=O)O)cn(C3CC3)c12 (centres undefined)	inconclusive: 50.1 µM [inhibitor, partial curve, poor fit]

Structure (SMILES)	Potency
O=C(O)CCn1cc(/C=C/C(=O)c2ccc(Cl)cc2)c(-c2cccc(Br)c2)n1	inconclusive: 89.1 µM [inhibitor, partial curve, poor fit]
COc1c(N2CCNC(C)C2)c(F)cc2c(=O)c(C(=O)O)cn(C3CC3)c12 (centres undefined)	inconclusive: 39.8 µM [inhibitor, partial curve]
CCCc1nnc(NC(=O)CCS(=O)(=O)Cc2ccccc2)s1	inactive
C=CCOc1ccc(CNc2ccc3[nH]c(=O)[nH]c3c2)cc1OC	inconclusive: 89.1 µM [inhibitor, single point]
Cc1ccc(S(=O)(=O)n2nc(C)c(Br)c2C)c(C)c1C	inactive
O=C(O)c1ccc2c(c1)C(=O)/C(=C\c1ccco1)C2=O	inconclusive: 12.6 µM [inhibitor, full curve, poor fit]
CC1=C(C(=O)OCc2ccccc2)C(c2ccc([N+](=O)[O-])cc2)NC(=O)N1CCCC(=O)O (centres undefined)	inactive
COc1ccc(Br)cc1/C=c1\sc2nc(-c3ccco3)nn2c1=O	inconclusive: 79.4 µM [inhibitor, partial curve]
Clc1cccc(CSc2ncnc3c2ncn3C2CCCCO2)c1 (centres undefined)	inconclusive: 89.1 µM [inhibitor, partial curve, poor fit]
CCOc1ccc(-c2nc(CSCC(=O)NCCc3ccccc3)c(C)o2)cc1	inconclusive: 89.1 µM [inhibitor, partial curve, poor fit]
CC(C)(C)C(=O)CSc1n[nH]c(-c2ccccc2)n1	inconclusive: 89.1 µM [inhibitor, single point]
Cc1nc(Nc2ccc(C(=O)O)cc2)nc(Nc2ccc(C(=O)O)cc2)c1[N+](=O)[O-]	inconclusive: 79.4 µM [inhibitor, single point]
N#Cc1sc2nc(-c3ccccc3)cc(-c3ccco3)c2c1N	inconclusive: 44.7 µM [inhibitor, partial curve]
O=C(COC(=O)CSc1ccc([N+](=O)[O-])cc1)NCCc1ccccc1	inactive
CCOc1ccc(C(=O)Nc2cc(C)ccn2)cc1	inactive
CCn1cc(S(=O)(=O)c2ccc(C)cc2C)c(=O)c2cc(F)c(N3CCCC3)cc21	inactive
N#CC1=C2SCN(C3CCCCC3)CN2C(=O)CC1c1ccc(F)cc1 (centres undefined)	inactive
NC(=O)c1ccc2c(=O)n3c(-c4cc(Cl)c(N)c(Cl)c4)csc3nc2c1	inconclusive: 56.2 µM [inhibitor, partial curve, poor fit]
C#CCOCCOCCOCCNc1nc(N2CCN(C(=O)CCCCCCCCCCNC(=O)Cn3cc(CCCCCN)nn3)CC2)nc(N2CCN(C(=O)CCCCCCCCCCNC(=O)Cn3cc(CCCCCN)nn3)CC2)n1	active: 89.1 µM
Cc1ccccc1C(C(=O)NCc1ccco1)N(CC1CCCO1)C(=O)Cn1nnc2ccccc21 (centres undefined)	inactive
CC(c1ccccc1)N(CCC(c1ccccc1)C1CCOC(C)(C)C1)C(=O)c1ccco1 (centres undefined)	inactive
Cc1sc2nc(C3CC3)nc(NCCNS(=O)(=O)c3ccccc3)c2c1C	inconclusive: 79.4 µM [inhibitor, partial curve, poor fit]
Cc1ccc(NC(=S)NC(=O)C2CCCC2)c(Br)c1	inconclusive: 28.2 µM [inhibitor, partial curve, poor fit]
